To fix the notation:
B1: OR4K15 (parent)
chain: GUUAACGGUCAUAGGCCAUGGAAACUAGGAGCACCAUUUCGCUGCCAGUGAAGAAAUGAACAAAGAAAAUCUGGGCCAGGCAGGCAUCAAAAGAAAUAGUCUUGCGCUCAACCAGAAAGUCUGUAAUCAUUUUAAGGGUA

The source gives no read counts; variants with many changes may rest on few reads.

This series covers variants of B1. Description: self-cleavage, relative activity (ratio to wild type); higher = more cleavage; in vitro, sequencing; the parent is a self-cleaving ribozyme.
For GUUAACGGUCAAAGGCCAUGGAAACUAGGAGCACCAUUUCGCUGCCAGUGAAGAAAUGAGCAAAGAGAAUCUGGGCCAGGCAGGCAUCAAAAGAAAUAGUCUUGCGCUCAACCAGAAAGUCUGUAAUCAUUUUAAGGGUA [U12A A60G A67G], the self-cleavage amounted to 0.48.

On to GUUAACGGUCAAAGGCCAUGGAAACUAGGAGCACCAUUUCGCUGCCAGUGAAGAAAUGAACAAAGAAAAUCUGGGCCAGGCAGGCAUCAAAAGAAAUAGUCUUGCGCUCAACCAGAAAGUCUGUAACCAUUUUAAAGGUA [U12A U127C G136A], for which the self-cleavage was 0.98. With GUUAACGGUCACGGGCCAUGGAAACUAGGAGCACCAUUUCGCUGCCAAUGGAGAAAUGAACAAAGAAAAUCUGGGCCAGGCAGGCAUCAAAAGAAAUAGUCUUGCGCUCAACCAGAAAGUCUGUAAUCAUUUUAAGGGUA [U12C A13G G48A A51G], the self-cleavage was 1.7. Turning to GUUAACGGUCACGGGCCAUGGAAACUAGGAGCACCAUUCCGCUGCCAGUGGAGAAAUGAACAAAGAGAAUCUGGGCCAGGCAGGCAUCAAAAGAAGUAGUCUUGCGCUCAACCAGAAAGUCUGUAAUCAUCUUAAGGGUA [U12C A13G U39C A51G A67G A96G U131C], the self-cleavage is 0.45. With GUUAACGGUCAAAGGCCAUGGAAACUAGGAGCACCAUUUCGCUGCCAGUGAAGAAAUGAUCAAAGUAAAUCAGGGCCAGGCAGGCAUCAAAAGAAAUAGUCUUGCGCUCAACCAGAAAGUCUGUAAUCAUUUCAAGGGUA [U12A A60U A66U U72A U133C] the figure was 0.46; with GUUAACGGUCACAGGCCAUGGAAGCUAGGAGCACCACCUCGCUGCCAGUGAAGAAAUGAACAAAGAAAAUCUGGGCCAGGCAGGCAUCGAAAGAAAUAGUCUUGCGCUCAACUAGAAAGUCUGUAAUCAUUUUAAGGGUA [U12C A24G U37C U38C A89G C113U], 0.11. For GUUAACGGUCAAAGGCCAUGGAAACUAGGAGCACCAUUUCGCCGCCAGUGAAGAAAUGAGCAAAGAAAAUCUGGGCCAGGCAGGCAUCAAAAGAAAUAGUCUUGCGCUCAACCAGAAAGUCUGUAAUCAUCUUAAGGGUA [U12A U43C A60G U131C] the value was 1.2.

With GUUAACGGUCAAAGGCCAUGGAAAUUAGGAGCACCAUUUCGCUGCCAGUGAAGAAAUGAACAAAGAAAAUCUGGGCCAGGCAGGCAUCAAAGGAAAUAGUCUUGCGCUCAACCAGAGAGUCUGUAAUCAUUUUAAGGGUU [U12A C25U A92G A117G A140U], the self-cleavage was determined as 1.52. GUUAACGGUCACAGGCCAUGGAGGCUAGGAGCACCAUUUCGCUGCCAGUGAAGAAAUGAACAAAGAAAAUCUGGGCCAGGCAGGCAUCAAAAGAAAUAGUCUUGCGCUCAACCAGAAGGUCUGUAAUCAUUUUAAGGGUA [U12C A23G A24G A118G]: the self-cleavage stood at 0.24. With GUUAACGGUCACGGGCCAUGGGAACUAGGAGCACCAUUUCGCUGCCAGUGAAGAAAUGAACAAAGAAAAUCUGGGCCAGGCAGGCAUCAAAAGAAAUAGUCUUGCGCUCAACCAGAUAGUCUGUAAUCAUUUUAAGGGUA [U12C A13G A22G A117U] the figure was 0.45. For GUUAACGGUCAAAGGCCAUGGAAACUAGGAGCACCAUUUCGCUGCCAGUGAAGAAAUGAACAAAGAAAAUCUGGGCCAGGCAGGCAUCAAAAGGAAUAGUCUUGCGCUCAACCGGAAGGUCUGUAAUCAUUUUAAGGGUA [U12A A94G A114G A118G] the value was 1.09; for GUUAACGGUCAAAGGCCAUGGAAACUAGGAGCACCAUUUCGCUGCCAGUGAAGAAAUGAACUAAGAGAAUCUGGGCCAGGCAGGCAUCAAAAGAAAUAGUCUUGCGCUCAACCAGAAAGUCUGUAAUCAUUUUAAGGGUA [U12A A62U A67G], 1.35; for GUUAACGGUCACAGGCCAUGGAAGCUAGGAGCACCAUUUCGCUGCCAGUGACGAAAUGUACAAAGAAAAUCUGGGCCAGGCAGGCAUCAAAAGAAAUAGUCUUGCGCCCAACCAGAAAGUCUGUAACCAUUUUAAGGGUA [U12C A24G A52C A59U U108C U127C], 0. With GUUAACGGUCACAGGCCAUGGGAACUAGGAGCACCAUUUCGCUGCCAGUGAAGAAAUAAACAAAGAAAAUCUGGGCCAGGCAGGCAUCAAAAGAAAUAGUCUUGCGCUCAACCAGAAAGUCUGUAAUCAUUUUAAGGGUA [U12C A22G G58A] the figure was 0.71; with GUUAACGGUCAAAGGCCAUGGAAACUAGGAGCACCAUUUCGCUGCCAGUGAAGAAAUGAACAAAGAAUAUCUGGGCCGGGCAGGCAUCAAGAGAAAUAGUCUUGCGCUCAACCAGAAAGUCUGUAAUCAUUUUAAGGGUA [U12A A68U A78G A91G], 0.12. As to GUUAACGGUCAAAGGCCAUGGAAACUAGGAGCACCAUUUCGCUGCCAGUGAAGAAGUGAACAGAGAAAAUCUGGGCCAGGCAGGCAUCAAAAGAAAUAGUCUUGCGCUCAACCAGAAAGUCUGUAAUCAUUUUAAGGGUA [U12A A56G A63G], the self-cleavage turned out to be 1.14.

Consider GUUAACGGUCACAGGCCAUGGAGACUAGGAGCACCAUUUCGCUGCCAGUGAAGAAAUGAACAAAGAAAAUCUGGGCCAGGCAGGCAUCAAAAGAAAUAGUCUUGCGCUCAACCAGGAAGUCUGUAAUCAUUUUAAGGGUA [U12C A23G A116G], for which the self-cleavage came out at 1.32. Take GUUAACGGUCAAAGGCCAUGGAAACUAGGAGCACCAUUUCGCUGCCAGUGAGGAAGUGAACAAAGAAAGUCUGGGCCAGGCAGGCAUCAAAAGAAAUAGUCUUGCGCUCAACCAGAAAGUCUGUAAUCAUUUUAAGGGUA [U12A A52G A56G A69G]: the self-cleavage was determined as 0.19. With GUUAACGGUCACAGGCCAUGGUAACUAGGAGCACCAUUUCGCUGCCAGUGAAGAAAUGAACAAAGAAGAUCUGGGCCAGGCAGGCAUCGAAAGAAAUUGUCUUGCGCUCAACCAGAAAGUCUGUAAUCAUUUUAAGGGUA [U12C A22U A68G A89G A98U] the figure was 1.56; with GUUAACGGUCACAGGCCAUGGAAUCUAGGAGCACCAUUUCGCUGCCAGUGAAGAAAUGAACAAAGAAAAUCUGGGCCAGGCAGGCAUCAAGAGAAAUAGUCUUGCGCUCAACCAGAAAGUCUGUAAUCAUUUUAAGGGUA [U12C A24U A91G], 0.49. With GUUAACGGUCAAAGGCCAUGGAAACUAGGAGCACCAUUUCGCUGCCAGUGAAGAAAUGAACAAAGAAAAUCUGGGCCAGGCAGGCAUCAAAAGAAUUAGUCUUGCGCUCAACCAGAAAGUCUGUAAACAUUUUAAGGGUA [U12A A96U U127A] the figure was 1.17; with GUUAACGGUCAAAGGCCAUGGAAACUAGGAGCACCAUUUCGCUGCUAGUGAAGAAAUGAACAAAGAAAAUCUGGGCCAGGCAGGCAUCAAGAGAAAUAGUCUUGCGCUCAACCAGAAAGUCUGUAAUCAUUUUAAGGGUA [U12A C46U A91G], 0.37. With GUUAACGGUCAAAGGCCAUGGAAACUAGGAGCACCAUUUCGCUGCCAGUGGAGAAAUGAACAAAAAAAAUCCGGGCCAGGCAGGCAUCAAAAGAGAUAGUCUUGCGCUCAACCAGUAAGUCUGUAAUCAUUUUAAGGGUA [U12A A51G G65A U72C A95G A116U] the figure was 0.08; with GUUAACGGUCACAGGCCAUGGAGACUAGGAGCACCAUUUCGCUGCCAGUGAAGAAAUGAACAAAGAAAAUCAGGGCCAGGUAGGCAUCAAAAGAAAUAGUCUUGCGCUCAACCAGAAAGUCUGUAAUCAUUUUAAGGGUA [U12C A23G U72A C81U], 0.35. Consider GUUAACGGUCACAGGCCUUGGAAACUAGGAGCACCAUUUCGCUGCCAGUGAAGAAAUGAACAAAGAAAAUCUGGGCCAGACAGGCAUCAAAAGAAAUAGUCUUGCGCUCAACCAGAGAGUCUGUAAUCAUUUUAAGGGUA [U12C A18U G80A A117G], for which the self-cleavage was 0.16. With GUUAACGGUCAAAGGCCAUGGAAACUAGGAGCACCAUUUCGCUGCCAGUGAAGAAAUGAGCAAAGAAAGUCUGGGCCAGGCAGGCAUCAAAAGAAACAGUCUUGCGCUCAACCAGGAAGUCUGUAAUCAUUUUAAGGGUA [U12A A60G A69G U97C A116G], the self-cleavage came out at 0.55. With GUUAACGGUCAAAGGCCAUGGAAACUAGGAGCACCAUUUCGCUGCCAGUGAAGAAAUGAACAAAGAAAACCUGGGCCAGGCAGGCAUCAAAAGAAAUAGUCUUGCGCUCAACCAGAAAGUCUGUAACCAUCUUAAGGGUA [U12A U70C U127C U131C] the figure was 0.64; with GUUAACGGUCACAGGCCGUGGAGACUAGGGGCACCAUUUCGCGGCCAGUGAAGAAAUGAACAAAGAAAAUCUGGGCCAGGCAGGCAUCAAAAGAAAUAGUCUUGCGCUCAACCAGAAAGUCUGUAAUCAUUUUAAGGGUA [U12C A18G A23G A30G U43G], 0.87. With GUUAACGGUCACAGGCCAUGGAAGCUAGGAGCACCAUUUCGCUGCCAGUGAAGAAAUGAACAAAGAAAAUCUGGGCCAGGCAGGCAUCAAAAGAAAUAGUCUUGCGCUCAACCAGAAAGUCUGUAAUCAUUUUAAUGGUA [U12C A24G G136U] the figure was 1.67; with GUUAACGGUCAAAGGCCAUGGAAACUAGGAGCACCAUUUCGCUGCCAGUGAAGAAAUGAACAAAGAAAAUCUGGACCAGGCAGGCAUCAAAAGAAAUAGUCUUGCGCUCAACCAGAAAGUCUGUAAUCAUUUUAAGGGUG [U12A G75A A140G], 0.14.

On to GUUAACGGUCACAGGCCAUGGUAACUAGGAGCACCAUUUCGCUGCCAGUGAAGAAAUGAACAAAGAAAAUCUGGGCCAGGCAGGCAUCAAAAGAAAUAGUCUUGCGCUCAACCAGAAAGUCUGUAAUCAUUCUAAGGGUA [U12C A22U U132C], for which the self-cleavage is 0.64. As for GUUAACGGUCACAGGCCAUGGAAGCUAGGAGCACCAUUUCGCUGCCAGUGAAGAAAUGAACAAAGAAAAUCUGGGCCAGGCAGGCAUCAAAAGAAAUAGUCUAGCGCUCAACCAGAAAGUCUGUAAUCAUUUUAAGGGUA [U12C A24G U103A], the self-cleavage is 0.15. For GUUAACGGUCAAAGGCCAUGGAAACUAGGAGCACCAUUUCGCUGCCAGUGAAGAAAUGAACAAUGAAAAUCUGGGCCAGGCAGGCAUCAAAAGAAAUAGUCUUGCGCUCAACCAGGAAGUCUGUAAUCAUUUUAAGGGUA [U12A A64U A116G] the value was 0.59; for GUUAACGGUCACAGGCCGUGGAAACUAGGAGCACCAUUUCGCUGCCAGCGAAGAAAUGUACAAAGAAAAUCUGGGCCAGGCAGGCGUCAAAAGAAAUAGUCUUGCGCUCAACCGGAAAGUCUGUAAUCAUUUUAAGGGUA [U12C A18G U49C A59U A86G A114G], 0.15. For GUUAACGGUCAAAGGCCAUGGAAACUAGGAGCACCAUUUCGCUGCCAGUGAAGAAAUGAACAAAGAAAAUCUGGGCCAGGCAGGCAUCAAAGGAAAUAGUCUUGCGCUCAACCAGAAAGUCUGCAAUCAUUUUAAGGGUA [U12A A92G U124C] the value was 0.71. With GUUAACGGUCAAAGGCCAUGGAAACUAGGAGCACCAUUUCGCUGCCAGUGAAGAAAUGAACAAAGAAAAUCUGGGCCUGGCGGGCAUCAAAAGAAAUAGUCUUGCGCUCAACCAGAAAGUCCGUAAUCAUUUUUAGGGUA [U12A A78U A82G U122C A134U] the figure was 0.32; with GUUAACGGUCACAGGCCAUGGAGGCUAGGAGCACCAUUUCGCUGCCAGUGAAGAAAUGAACAAAGAAAAUCUGGGCCAGGCAGGCAUCAAAAGAAAUAGUCUUGCGCUCAACCAGAAAGUCUGUAAUCAUUUUAAGGGUA [U12C A23G A24G], 0.8; with GUUAACGGUCAAAGGCCAUGGAAACUAGGAGCACCAUUUCGCUGCCAGUGAAGAAAUGAACAAAGAAAAUCUGGGCCAGGCAGGUAUCGAAAGAAAUAGUCUUGCGCUCAACCAGAAAGUCUGUAAUCAUUUUAAGGGUA [U12A C85U A89G], 1.35. As to GUUAACGGUCAAAGGCCAUGGAAACUAGGAGCACCAUUUCGCUGCCAGUGAAGAAAUGAACAAAGAAAAUCUGGGCCAGGCAGGCUUCAAAAGAAAUAGCCUUGCGCUCAGCCAGAAAGUCUGUAAUCAUUUUAAGGGUA [U12A A86U U100C A111G], the self-cleavage came to 0. For GUUAACGGUCAAAGGCCAUGGAAACUAGGAGCACCAUUUCGCUGCCAGUGAAGAAAUGAACGAAGAAAAUCUGGGCCAGGCAGGCAUCAAAAGAAAUAGUCUUGCGCUCAACCGGAAAGUCUGUAAUCAUUUUAAGGGUA [U12A A62G A114G] the value was 0.52; for GUUAACGGUCAAAGGUCACGAAAACUAGGAGCACGAUUUCGCUGCCAGUGAAGAAAUGAACAAAGAAAAUCUGGGCCAGGCAGGCAUCAAAAGAAAUAGUCUUGCGCUCAACCAGAGAGUCUGUAAUCAUUUUAAGGGUA [U12A C16U U19C G21A C35G A117G], 0.77.

For the origin of these results see the RNAGym collection of RNA variant scans (doi:10.7554/elife.90254).
